Screen size: about 44,000 compounds; about 340 (0.77%) were called active. About 5% were inconclusive and are not listed. Calls come from the whole dose curve; as a rule, active = well fitted inhibition curve with a large enough effect; inconclusive = small, poorly fitted or top-dose-only effect; inactive = flat fitted curve, though single readings scatter. The list shows a part of the results.
assay: Acumen qHTS Assay for Inhibitors of the mTORC1 Signaling Pathway in MEF (Tsc2-/-, p53-/-) Cells: Sytravon; settings: phospho-rpS6 immunofluorescence/PI, 24 h; series mostly up to 38.3 µM; activity change, negative = inhibition: at the top concentration;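 note: plate controls were DMSO for no effect and rapamycin for full effect; nearly all actives have a fitted effect of over 50% in size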
How it was run: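 Tsc2-/-, p53-/- mouse embryonic fibroblasts (empty-vector line) exposed to compound 24 hrs at 37 C, fixed, immunostained for phospho-rpS6 and counterstained with propidium iodide. Acumen laser scanning gives % positive cells from Alexa 488/PI ratio, thresholded using 7.5 nM rapamycin; PI count gives viability.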

Activity change, negative = inhibition, inactive:
CC(C)c1nc2ccc(C(=O)Nc3ccccc3F)cc2o1 0.115%
COc1ccc(NC(=O)c2oc3ccccc3c2NC(=O)COc2ccc(C(C)C)cc2)c(OC)c1 1.72%
O=C(Nc1ccccc1Cl)c1sc2cccc(Cl)c2c1Cl 1.52%
CCOc1cc(CNC(=O)CN2CCSc3ccccc32)cc(OCC)c1OCC -0.996%
COc1cccc(NC(=O)Cn2c(=O)n(Cc3ccccc3)c(=O)c3ccccc32)c1 -3.05%
Cc1ccc(N(CC(=O)Nc2ccc(Cl)cc2)S(=O)(=O)c2cccc3nonc23)cc1 -3.71%
CCSc1nc2n(n1)C(c1ccc(C(=O)O)cc1)C(C(=O)Nc1ccccc1C)=C(C)N2 (stereo unspecified) 2.75%
CN1C(C(=O)Nc2ccc(OC(F)(F)F)cc2)=CC(c2cccs2)=NS1(=O)=O -2.66%
COc1ccc(-c2nc3c(c(SCC(=O)N4CCCCC4)n2)Cc2cc(Cl)ccc2O3)cc1 1.67%
CN(C)c1ccc(CNC(=O)Cn2c(=O)oc3cc(S(=O)(=O)N4CCCCCC4)ccc32)cc1 -7.3%
Cc1ccc(-n2ncc(C(=O)N3CCCCC3)c2C2CCN(C(=O)OC(C)(C)C)CC2)c(C)c1 1.09%
CCCS(=O)(=O)c1nc(S(=O)(=O)c2ccc(C)cc2)c(NC)s1 -7.88%
COc1ccc(-n2c(=O)[nH]c3cc(C(=O)NCCc4ccccc4)ccc3c2=O)cc1OC 5.51%
CCOC(=O)c1c(NC(=O)c2ccc(OC)cc2)sc2c1CCCCC2 2.66%
O=C(COc1ccccc1)Nc1ccc2nc(SCC(=O)N3CCOCC3)sc2c1 -1.31%
O=C(CSc1nnc(-c2ccc(F)cc2)o1)N1CCCc2ccccc21 1.89%
Cc1ccc(CSc2nnc3[nH]c(=O)cc(-c4ccccc4)n23)cc1 -0.342%
COc1cc(OC)c(NS(=O)(=O)c2ccc3oc(=O)c4ncn(C)c4c3c2)cc1Cl -20.5%
COc1ccc(N2CCN(CCCNC(=O)Nc3ccccc3)CC2)cc1 -11.2%
COc1ccc(C2C=C(c3ccc(Cl)c(Cl)c3)Nc3ncnn32)cc1 (stereo unspecified) 6.52%
O=C(CCC1N=C2c3ccccc3N=C(SCc3ccc(Cl)cc3)N2C1=O)N1CCN(c2ccccc2)CC1 (stereo unspecified) -3.11%
COc1ccc(-n2c(SCC(=O)NCc3ccc(C)cc3)nc3n[nH]c(C)c3c2=N)cc1 6.49%
COC(=O)c1sccc1S(=O)(=O)N(CC(=O)NCc1ccc(C)cc1)c1ccc(C)cc1 10%
CCn1cc(C(=O)NCc2ccc(Cl)cc2)c(=O)c2cc(S(=O)(=O)N(C)C3CCCCC3)ccc21 -15.6%
CCOC(=O)C1=C(CN2CCN(c3cccc(Cl)c3)CC2)NC(=O)NC1c1ccc(Cl)cc1 (stereo unspecified) -1.72%
CC(C)(C)c1ccc(OCc2nnc(-c3ccccc3)o2)cc1 -3.64%
COc1ccc(NC(=O)CCCn2nc(C)c3sc4ccccc4c3c2=O)cc1 0.241%
COc1ccc(S(=O)(=O)NCCSc2nnnn2-c2ccccc2)cc1 -3.33%
COc1ccc(-c2nc(CSCC(=O)N3CCN(c4ccc(F)cc4)CC3)c(C)o2)cc1 -21.9%
CCN(Cc1ccccc1)S(=O)(=O)c1ccc(-c2coc(C)n2)cc1 -23.7%
CC(CNC(=O)c1ccc2nc(Cc3ccccc3)oc2c1)c1ccccc1 (stereo unspecified) 3.74%
Fc1ccc(C2=CC(c3ccc(F)cc3)n3c(nc4ccccc43)N2)cc1 (stereo unspecified) -2.43%
Cc1cc(-n2c(C)nc3ccccc3c2=O)ccc1NC(=O)C(F)(F)F 0.381%
O=C(Cn1ncc2c3ccccc3n(Cc3ccc(F)cc3)c2c1=O)NCc1cccs1 1.23%
Cc1cccc(Cc2c(C)nc3c(-c4ccccc4)c(C)[nH]n3c2=O)c1 8.7%
CC1CCCN(S(=O)(=O)c2ccc3c(c2)CCN3C(=O)CCC(=O)O)C1 (stereo unspecified) -14.8%
CCC(C)Nc1ncnc2c1cnn2-c1ccc(F)cc1 (stereo unspecified) 2.99%
COc1ccc(NS(=O)(=O)c2ccc3nc(-c4ccccc4)[nH]c3c2)cc1 -6.98%
Cc1cc(C(=O)Nc2ccc(-n3c(C)nc4ccccc4c3=O)cc2)ccc1[N+](=O)[O-] -8.77%
CCc1nonc1NC(=O)c1oc2ccc(Br)cc2c1C 0.45%
CCc1ccc(-n2c(=O)c3c4c(sc3n(CC(=O)N3CCC(C)CC3)c2=O)CCC4)cc1 -1.99%
Cc1ccc(NC(=O)C2CCCN(S(=O)(=O)c3cccc4cccnc34)C2)cc1 (stereo unspecified) -12.2%
Cc1ccc(Cl)cc1NC(=O)c1oc2ccc(S(=O)(=O)N3CCCCC3)cc2c1C -9.7%
CCOC(=O)c1ccc(NC(=O)CSc2cc(=O)n(CC)c3ccccc23)cc1 0.333%
Cc1ccc(Cl)cc1NC(=O)c1oc2ccc(S(=O)(=O)N(C)C3CCCCC3)cc2c1C 11.7%
Cc1ccc(S(=O)(=O)c2cn(Cc3cccc(C)c3)c3cc4c(cc3c2=O)OCO4)cc1 -19.4%
CC(=O)CSc1nnc2cc(C)c3cc(C)cc(C)c3n12 -1.78%
Cc1nn(C(C)C(=O)N2CCN(c3ccc(Cl)cc3)CC2)c(=O)c2cc3occc3n12 (stereo unspecified) -6.38%
Cc1ccc2c(c1)c(=O)c(C(=O)c1ccc3c(c1)OCO3)cn2Cc1ccc(Cl)cc1 0.685%
CCOc1ccc(CN(C(=O)c2cc(=O)c3cc(C)cc(C)c3o2)C2CCS(=O)(=O)C2)cc1 (stereo unspecified) 4.51%
COc1cc(NC(=O)CCc2c(C)nc3cc(-c4ccccc4)nn3c2C)cc(OC)c1OC -8.04%
CCC(CC)C(=O)Nc1nnc(SCc2cc(=O)n3cccc(C)c3n2)s1 1.11%
CCCN1C(=O)C2(c3ccccc31)c1c(oc3ccc(F)cc3c1=O)C(=O)N2CCCOC(C)C (stereo unspecified) -1.56%
c1coc(-c2nc3n(n2)C2(CCCCC2)[C@@H]2CCCC[C@@H]2N3)c1 -4.21%
CN(C(=O)CSc1nnc(-c2ccccc2F)o1)C1CCCCC1 -1.92%
CCN(C(=O)CSc1nc(-c2ccc(C(C)C)cc2)no1)c1cccc(C)c1 -0.783%
Cc1cccc(C(=O)Nc2nnc(S(=O)(=O)N(C)c3ccccc3C)s2)c1 -3.32%
Cc1ccc(-n2c(-c3ccco3)nc3c(cnn3-c3ccccc3Cl)c2=O)cc1 -16.4%
COc1ccc(OC)c(NS(=O)(=O)c2ccc(-c3cc(C)no3)s2)c1 -17%
COc1ccc(CNC(=O)CCCn2nc(C)c3c(C)n(-c4ccccc4)nc3c2=O)cc1 -7.91%
COc1ccc(CCNS(=O)(=O)c2cc(-c3cc(C)no3)ccc2C)cc1OC -5.38%

From PubChem BioAssay AID493208 (National Center for Advancing Translational Sciences (NCATS), 2011)
